# Source: PMC6919601, “Identification of Plasmodium dipeptidyl aminopeptidase allosteric inhibitors by high throughput screening” (PLoS ONE, 2019)
# Several values for one entry are separate records, joined by “and”; a condition that tells them apart may be missing. Equal entries are not always repeated. Out of some 110,000 compounds screened, about 230 (0.21%) showed an effect of 50% or more. Some of the results follow.
# Molecular target: DPAP1 (Plasmodium falciparum, UniProt Q8IIJ9)
# Assay: primary screen, percent inhibition; read by cleavage of a fluorogenic dipeptide substrate; higher = more effect of the substance
# Set-up: species or system P. falciparum D10 trophozoite lysates; single well
# 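Further: 30 min substrate incubation versus DMSO and 10 µM JCP410 controls.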
# Chain of DPAP1 (Q8IIJ9 whole entry, looked up): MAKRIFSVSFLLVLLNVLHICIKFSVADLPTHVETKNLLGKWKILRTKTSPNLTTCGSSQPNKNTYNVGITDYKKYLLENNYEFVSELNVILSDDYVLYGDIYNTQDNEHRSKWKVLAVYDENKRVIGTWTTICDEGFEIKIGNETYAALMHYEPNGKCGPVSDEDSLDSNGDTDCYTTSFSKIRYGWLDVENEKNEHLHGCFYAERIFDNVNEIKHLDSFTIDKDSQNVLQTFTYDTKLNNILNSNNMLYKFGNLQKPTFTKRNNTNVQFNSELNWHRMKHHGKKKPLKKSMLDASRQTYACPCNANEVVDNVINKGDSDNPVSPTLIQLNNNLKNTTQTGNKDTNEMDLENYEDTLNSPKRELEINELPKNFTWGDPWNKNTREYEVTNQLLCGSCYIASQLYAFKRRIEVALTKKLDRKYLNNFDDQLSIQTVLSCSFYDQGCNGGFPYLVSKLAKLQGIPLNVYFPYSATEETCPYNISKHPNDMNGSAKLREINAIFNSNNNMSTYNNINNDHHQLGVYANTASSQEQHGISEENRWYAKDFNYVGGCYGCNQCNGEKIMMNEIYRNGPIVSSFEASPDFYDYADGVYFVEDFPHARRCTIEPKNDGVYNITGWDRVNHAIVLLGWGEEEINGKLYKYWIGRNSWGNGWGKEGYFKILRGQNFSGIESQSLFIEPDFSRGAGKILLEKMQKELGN
row,Compound,% Inhibition @ 10 uM
1,CCCCC[C@H](NC(=O)c1ccccc1)C(=O)NCC#N,-6.98%
2,Cc1nn(C(C)C(=O)N2CCc3ccccc3C2)c(=O)c2c1sc1ccccc12 (stereo not shown),3.3%
3,CCCN(CCC)C(=O)Cn1ncn2c(cc3ccccc32)c1=O,-7.22%
4,CN(C)CCC/N=c1\cc(-c2ccccc2)oc2ccc(Cl)cc12,2.24%
5,Cc1cc(N2CCC(C(=O)Nc3cccnc3Cl)CC2)n2nc(C)c(-c3ccc(Cl)cc3)c2n1,-1.89%
6,COC(=O)c1ccc(OCC2c3cc(OC)c(OC)cc3CCN2C(=O)c2c(F)cccc2F)cc1 (stereo not shown),-0.812%
7,O=C1c2ccccc2C(=O)N1OCCSc1nc2ccccc2s1,-1.33%
8,CCOCCCNCc1ccc(OCCC(C)C)c(OC)c1,3.66%
9,CCOC(=O)N1CCN(C(=O)C2CCN(S(=O)(=O)c3ccccc3)CC2)CC1,0.147%
10,CCOC(=O)c1c(C)[nH]c(C)c1S(=O)(=O)NCC(=O)N1CCCN(Cc2ccc(F)cc2)C1,-1.95%
11,CCOc1ccc(NC(=O)Nc2ccc(Cl)c(Cl)c2)cc1,4.6%
12,Cc1ccc(NC(=O)c2ccc3c(c2)c(C)c(C)n3Cc2ccccc2)cc1,3.47%
13,CC(C)C(=O)N1c2ccccc2N=C2CC(C)(C)CC(O)=C2C1c1cccnc1 (stereo not shown),-2.46%
14,Fc1ccc(CN2CCN(c3ccc(F)cc3)CC2)cc1,1.63%
15,Cc1nnc2sc(-c3cnccn3)nn12,-2.84%
16,O=C(C1CCCCC1)N1CC(=O)N(CCc2ccccc2)C(O)C1 (stereo not shown),-2.5%
17,CCOC(=O)C1=C(c2ccccc2)N=C(S)NC1CC (stereo not shown),1.13%
18,CCCCN(CCCC)Cc1c(C(=O)O)[nH]c(=O)[nH]c1=O,0.565%
19,Cc1ccccc1Cn1c(C(=O)O)c(CNC2CCN(Cc3ccccc3)CC2)c2ccccc21,3.54%
20,O=C(O)C1CCCCC1C(=O)NC1CCCCC1 (stereo not shown),1.62%
21,O=C(CCNC(=O)c1ccc(Br)o1)NCc1ccccn1,-0.502%
22,CC1CCN(C(=O)COc2ccc3ccccc3c2Br)CC1,-4.68%

row,Compound,% Inhibition @ 10 uM
1,Clc1ccc(N2CCN(Cc3ccoc3)CC2)cc1,-4.35%
2,COc1ccc(CC(=O)N(C)c2ccccc2)cc1,-1.62%
3,CCC(C)N(CCNC(=O)c1noc2c1COc1ccc(C)cc1-2)Cc1ccco1 (stereo not shown),-4.07%
4,O=C(Cc1ccc(Cl)c(Cl)c1)N1N=C(C(F)F)CC1(O)C(F)F (stereo not shown),-1.88%
5,O=C(O)Cc1csc2ccccc12,-3.53%
6,COc1ccccc1/C=C/c1ccccc1OC,2.03%
7,CN(CC(=O)Nc1ccc(C(F)(F)F)cc1)S(=O)(=O)c1ccc(Cl)cc1,5.15%
8,CCOC(=O)c1cnc(-c2ccccc2)nc1Nc1ccccc1,-2.36%
9,COc1ccc(C(C)(CCC(=O)Nc2ncc(CN3CCOCC3)s2)c2ccc(OC)cc2)cc1,-0.403%
10,O=C(CCC(=O)n1ncc2ccc(Cl)cc21)NC1CCCC1,0.596%
11,Cc1cc(C)n2nc(CNS(=O)(=O)c3ccc4c(c3)CCCC4)nc2n1,2.84%
12,CC(=O)Nc1ccccc1NC(=O)Nc1cccc(Cl)c1,-4.59%
13,Cc1ccc(S(=O)(=O)NCc2nc(-c3ccc(Cl)cc3)no2)cc1,-6.96%
14,Nc1ccc(-c2ccc(N)c(C(=O)O)c2)cc1C(=O)O,-1.74%
15,CCOC(=O)N1CCC(NC2CC2)CC1,-7.02%
16,Cc1cccc2c(N)c3c(nc12)N(C)CC3,-1.63%
17,COc1ccc(CC(=O)N2CCN(C)CC2)cc1,-1.93%
18,O=C(NCCCN1CCOCC1)c1ccncc1,-6.69%
19,CCOC(=O)N1CCc2c(sc3c2C(=O)NC(c2ccc(-c4cccc(C(F)(F)F)c4)o2)N3)C1 (stereo not shown),0.778%
20,CC(C)(C)c1cc(Cc2ccccc2)no1,4.61%
21,COc1ccc(Cl)cc1NC(=O)c1ccc(C)cc1,5.43%
22,CCN(CC)c1nn2nnnc2c2ccccc12,-3%

row,Compound,% Inhibition @ 10 uM
1,CCCCOc1ccc(S(=O)(=O)N2CCOCC2)cc1,-2.56%
2,CCOc1ccc(CN2CCN(Cc3ccco3)CC2)cc1,-1.6%
3,Cc1ccc(N2C(=O)c3ccc(C(=O)NCC4CCCO4)cc3C2=O)cc1 (stereo not shown),2.18% and -1.61%
4,CCOc1ccc(-c2csc(/C(C#N)=C\Nc3ccccc3)n2)cc1,3.53%
5,Cc1ccc(NC(=O)CSc2n[nH]c(-c3ccncc3)n2)c(C)c1,-4.36%
6,CC(Cc1c[nH]c2ccccc12)NC(=O)c1ccc(Cl)cc1 (stereo not shown),-7.42%
7,CN(C)c1ccc(CNCCC2(O)CCOC(C)(C)C2)cc1 (stereo not shown),5.05%
8,COc1cc(C(=O)Nc2cccc(C#N)c2)cc(OC)c1OC,-1.84%
9,O=c1c2ccccc2n2nncc2n1Cc1ccccc1F,3.7%
10,CCOC(=O)CSc1nc(O)cc(C)c1C#N,-0.736%
11,Cc1ccccc1-c1nc(CSCC(=O)N2CCOCC2)c(C)o1,-10.7%
12,CC(=O)Nc1nonc1-c1nc2ccccc2n1CCCC#N,21.3%
13,Cc1nn(-c2ccccc2)c2c1N(CC(=O)N1CCCCCC1)C(=O)CS2,-5.33%
14,Cc1ccccc1NC(=O)CC1NC2CCCCC2NC1=O (stereo not shown),3.72%
15,CCc1cccc2c(C#N)cn(CC(=O)NCCCOC)c12,-1.84%
16,COc1ccc(C2C3=C(CCCC3=O)OC3=C2C(=O)CCC3)cc1,2.4%
17,CC(Oc1ccccc1)C(=O)Nc1ccccn1 (stereo not shown),4.31%
18,O=C1NC2(CCN(C(=O)Cc3ccc(F)cc3)CC2)N=C1c1ccccc1,-1.6%
19,Cc1nc2ccc(S(=O)(=O)N(C)CC(=O)NCCC(C)C)cc2s1,5.84%
20,O=C(O)c1ccc(S(=O)(=O)N2CCCC3CCCCC32)cc1 (stereo not shown),2.73%
21,O=C(O)CCn1ccnc1-c1ccccc1,5.23%
22,CN1CCc2c(sc3c2C(=O)NC(c2ccccc2F)N3)C1 (stereo not shown),-3.04%

row,Compound,% Inhibition @ 10 uM
1,CCN1C(=O)/C(=C/c2cccn2C)C(=O)NC1=S,5.31%
2,Nc1ccc2nc(SCc3ccc(F)cc3)sc2c1,-4.4%
3,COC(=O)Nc1ccc(S(=O)(=O)N2CCN(c3ccccc3OC)CC2)cc1,-5.13%
4,O=C(NCCNC(=O)C1CC2CCC1C2)C1CC2CCC1C2 (stereo not shown),-0.865%
5,Oc1nc(SCCOc2ccccc2)nc2ccccc12,-2.03%
6,O=C1C2CCCCC2C(=O)N1c1ccc(F)cc1 (stereo not shown),-2.89%
7,O=C(C1=C(O)C(=O)N(CC2CCCO2)C1c1ccc(Br)cc1)c1ccccc1 (stereo not shown),-5.1%
8,CCOc1ccccc1C(=O)Nc1cccc(C(F)(F)F)c1,-3.74%
9,Cc1ccsc1CCNC(=O)CCCc1nnc2n(C)c(=O)c3sccc3n12,-3.01%
10,COc1ccc(C2CC(=O)N=C(N)N2)c(OC)c1OC (stereo not shown),1.66%
11,CCCn1c(=N)c(C(=O)NCCN2CCOCC2)cc2c(=O)n3cccc(C)c3nc21,3.6%
12,O=C1c2cccc3cccc(c23)C(=O)N1n1cnnc1,3.54%
13,CSc1nc2ccccc2c(=O)n1CC1CCCCC1,-1.35%
14,CCOc1cc2c(cc1OCC)C(c1ccc(OC)c(O)c1)NCC2 (stereo not shown),3.57%
15,CC(C)/N=C(\NS(=O)(=O)c1ccc(Cl)cc1)c1ccc(Br)cc1,-5.38%
16,COc1ccc(C(=O)C2=C(O)C(=O)N(CCCCCC(=O)O)C2c2ccc3c(c2)OCO3)cc1 (stereo not shown),-3.02%
17,Clc1ccccc1CN1CCN(C/C=C/c2ccccc2)CC1,-0.0404%
18,CC(=O)N1CN(CCCn2ccnc2)Cc2c1sc1c2CCCC1,0.221%
19,CCOC(=O)c1nnn(-c2nonc2N)c1CSc1nc(C)cc(C)n1,15.9%
20,CC(C)(C)NS(=O)(=O)c1ccc(OCC(=O)Nc2cccc(F)c2)cc1,1.39%
21,O=C1Cc2ccccc2C(c2ccc(Cl)cc2)N1 (stereo not shown),-3.35%
22,COc1ccc(CCNCc2cccc(C(F)(F)F)c2)cc1,-0.582%

row,Compound,% Inhibition @ 10 uM
1,CCOC(=O)c1cc2c(=O)n3ccccc3nc2n(CCOC)/c1=N/C(=O)c1ccncc1,-1.2%
2,O=C(Nc1ccccc1C(F)(F)F)C1CC(=O)N(c2ccccc2)C1 (stereo not shown),3.67%
3,Cc1ccc(-n2cnnn2)cc1S(=O)(=O)NC(C)(C)C,4.57%
4,COc1ccc(-c2[nH]nc3c2C(c2cccnc2)NC3=O)cc1 (stereo not shown),-5.22%
5,COc1ccc(S(=O)(=O)NCCSCc2ccccc2)c(Cl)c1Cl,-1.84%
6,COc1ccc2c(c1)CC/C(=C/c1ccco1)C2=O,8.9%
7,C=CCSc1nc(O)c(C(c2ccccc2)c2ccccc2)c(O)n1,1.14%
8,CCCC12CCC(=O)C=C1CCCC2=O (stereo not shown),-2.32%
9,CCN(CCN(C)C)C1CCCCCC1,4.28%
10,CCOCCCNC(=O)Cn1ncc2c(C)n(Cc3ccc(F)cc3)c(C)c2c1=O,-0.447%
11,Cc1cc(N2CCOCC2)ccc1/C=C1\SC(=O)N(C(C)C)C1=O,-0.0619%
12,Cc1ccccc1C(=O)Nc1ccc(Cl)c(Cl)c1,-2.54%
13,CC1=C(C(=O)Nc2ccccc2)C(c2cccs2)C(C#N)=C(SCc2ccccc2)N1 (stereo not shown),-2.44%
14,CCCOc1ccc(N2C(=O)CC(N3CCOCC3)C2=O)cc1 (stereo not shown),1.22%
15,O=C(NCc1ccco1)c1ccccc1NC(=O)C1CCCCC1C(=O)O (stereo not shown),0.843%
16,Cc1cccc(NC(=O)c2ccc([N+](=O)[O-])cc2)c1C,-0.268%
17,Cc1sc2ncn3cnnc3c2c1C,0.774%
18,CC(NC(=O)COCc1cc(-c2ccc3c(c2)OCO3)on1)c1ccccc1 (stereo not shown),6.27%
